{
  "source": "patent US11207320B2",
  "about": "“Compositions and methods for cancer expressing PDE3A or SLFN12” (The Broad Institute, Inc., priority 2015, dated 2021)",
  "tested_on": "766 cancer cell lines",
  "assay": "Large-scale cell-line viability measurements (766 cancer cell lines, 72 h, AUC)",
  "format": "cell-based, human",
  "conditions": "72 hours",
  "experimental": "Cell lines were treated for 72 hours with concentrations ranging from 66.4 μM-2 nM in 2-fold step dilutions.\nTo characterize cellular sensitivity to DNMDP further, 766 genomically characterized cancer cell lines were screened for DMNDP sensitivity at concentrations ranging from 66.4 μM to 2 nM in 2-fold dilution steps for 72 hours. From these cell lines, 22 cell lines were categorized as sensitive with a robust Z-score lower than −4, which represented multiple lineages including multiple melanoma cell lines, amongst others (Table 1).\nThe sensitivity of […] cancer cell lines (CCLs) was measured drawn from 23 different lineages to DNMDP. Each cell line was plated in its preferred media in white opaque 1536-plates at a density of 500 cells/well. After incubating overnight, DNMDP was added by acoustic transfer at 16 concentrations ranging from 66.4 μM-2 nM in 2-fold steps in duplicate (Labcyte Echo 555, Labcyte Inc., Sunnyvale, Calif.). After 72 hours treatment, cellular ATP levels were measured as a surrogate for viability (CELLTITERGLO®, Promega Corporation, Madison, Wis.) according to manufacturer's protocols using a ViewLux Microplate Imager (PerkinElmer, Waltham, Mass.) and normalized to background (media-only) and vehicle (DMSO)-treated control wells.\nConcentration response curves were fit using nonlinear fits to 2- or 3-parameter sigmoid functions through all 16 concentrations with the low-concentration asymptote set to the DMSO-normalized value, and an optimal 8-point dose curve spanning the range of compound-sensitivity was identified. The area under the 8-point dose curve (AUC) was computed by numeric integration as a metric for sensitivity for further analysis. Similar sensitivity measurements have been obtained for a collection of 480 other compounds, enabling analyses that identify cell lines responding uniquely to DNMDP (see Broad Institute Cancer Therapeutics Response Portal, a dataset to identify comprehensively relationships between genetic and lineage features of human cancer cell lines and small-molecule sensitivities for complete list of compounds).",
  "key": {"[1]": {"conditions": "SCC9 (UPPER AERODIGESTIVE TRACT)"}, "[2]": {"conditions": "SEM (HAEMATOPOIETIC AND LYMPHOID TISSUE)"}, "[3]": {"conditions": "SKMM2 (HAEMATOPOIETIC AND LYMPHOID TISSUE)"}, "[4]": {"conditions": "SNU201 (CENTRAL NERVOUS SYSTEM)"}, "[5]": {"conditions": "SUDHL1 (HAEMATOPOIETIC AND LYMPHOID TISSUE)"}, "[6]": {"conditions": "SUPM2 (HAEMATOPOIETIC AND LYMPHOID TISSUE)"}, "[7]": {"conditions": "SW1783 (CENTRAL NERVOUS SYSTEM)"}, "[8]": {"conditions": "TALL1 (HAEMATOPOIETIC AND LYMPHOID TISSUE)"}, "[9]": {"conditions": "THP1 (HAEMATOPOIETIC AND LYMPHOID TISSUE)"}, "[10]": {"conditions": "X8MGBA (CENTRAL NERVOUS SYSTEM)"}, "[11]": {"conditions": "X697 (HAEMATOPOIETIC AND LYMPHOID TISSUE)"}},
  "note": "The source gives many values for each of these; only a part stands here.",
  "data": [
    {"compound": "CCN(CC)c1ccc(C2=NNC(=O)CC2C)cc1[N+](=O)[O-]", "note": "(centres unmarked) [DNMDP, 6-(4-(diethylamino)-3-nitrophenyl)-5-methyl-4,5-dihydropyridazin-3(2H)-one]", "values": [
      {"measurement": "Robust Z-score", "setting": "RT4 (URINARY TRACT)", "result": "−0.3783"},
      {"measurement": "DNMDP AUC", "setting": "SCABER (URINARY TRACT)", "result": 6.322},
      {"measurement": "Robust Z-score", "setting": "SCABER (URINARY TRACT)", "result": "−0.3282"},
      {"measurement": "DNMDP AUC", "setting": "[1]", "result": 6.2351},
      {"measurement": "Robust Z-score", "setting": "[1]", "result": "−0.4194"},
      {"measurement": "DNMDP AUC", "setting": "[2]", "result": 4.7433},
      {"measurement": "Robust Z-score", "setting": "[2]", "result": "−1.985"},
      {"measurement": "DNMDP AUC", "setting": "SF295 (CENTRAL NERVOUS SYSTEM)", "result": 6.4581},
      {"measurement": "Robust Z-score", "setting": "SF295 (CENTRAL NERVOUS SYSTEM)", "result": "−0.1853"},
      {"measurement": "DNMDP AUC", "setting": "SH4 (SKIN)", "result": 4.3672},
      {"measurement": "Robust Z-score", "setting": "SH4 (SKIN)", "result": "−2.38"},
      {"measurement": "DNMDP AUC", "setting": "SHP77 (LUNG)", "result": 6.5008},
      {"measurement": "Robust Z-score", "setting": "SHP77 (LUNG)", "result": "−0.1405"},
      {"measurement": "DNMDP AUC", "setting": "SKLMS1 (SOFT TISSUE)", "result": 6.5254},
      {"measurement": "Robust Z-score", "setting": "SKLMS1 (SOFT TISSUE)", "result": "−0.1147"},
      {"measurement": "DNMDP AUC", "setting": "[3]", "result": 6.2396},
      {"measurement": "Robust Z-score", "setting": "[3]", "result": "−0.4147"},
      {"measurement": "DNMDP AUC", "setting": "SKOV3 (OVARY)", "result": 6.2773},
      {"measurement": "Robust Z-score", "setting": "SKOV3 (OVARY)", "result": "−0.3751"},
      {"measurement": "DNMDP AUC", "setting": "SKUT1 (SOFT TISSUE)", "result": 6.3987},
      {"measurement": "Robust Z-score", "setting": "SKUT1 (SOFT TISSUE)", "result": "−0.2477"},
      {"measurement": "DNMDP AUC", "setting": "SNU5 (STOMACH)", "result": 5.5498},
      {"measurement": "Robust Z-score", "setting": "SNU5 (STOMACH)", "result": "−1.139"},
      {"measurement": "DNMDP AUC", "setting": "SNU8 (OVARY)", "result": 6.3089},
      {"measurement": "Robust Z-score", "setting": "SNU8 (OVARY)", "result": "−0.3419"},
      {"measurement": "DNMDP AUC", "setting": "[4]", "result": 6.2618},
      {"measurement": "Robust Z-score", "setting": "[4]", "result": "−0.3914"},
      {"measurement": "DNMDP AUC", "setting": "SNU387 (LIVER)", "result": 4.9639},
      {"measurement": "Robust Z-score", "setting": "SNU387 (LIVER)", "result": "−1.754"},
      {"measurement": "DNMDP AUC", "setting": "SNU398 (LIVER)", "result": 6.4206},
      {"measurement": "Robust Z-score", "setting": "SNU398 (LIVER)", "result": "−0.2247"},
      {"measurement": "DNMDP AUC", "setting": "SNU449 (LIVER)", "result": 4.752},
      {"measurement": "Robust Z-score", "setting": "SNU449 (LIVER)", "result": "−1.976"},
      {"measurement": "DNMDP AUC", "setting": "SNU478 (BILIARY TRACT)", "result": 6.3432},
      {"measurement": "Robust Z-score", "setting": "SNU478 (BILIARY TRACT)", "result": "−0.3059"},
      {"measurement": "DNMDP AUC", "setting": "SNU503 (LARGE INTESTINE)", "result": 4.5692},
      {"measurement": "Robust Z-score", "setting": "SNU503 (LARGE INTESTINE)", "result": "−2.168"},
      {"measurement": "DNMDP AUC", "setting": "SNU685 (ENDOMETRIUM)", "result": 5.206},
      {"measurement": "Robust Z-score", "setting": "SNU685 (ENDOMETRIUM)", "result": "−1.5"},
      {"measurement": "DNMDP AUC", "setting": "SNU761 (LIVER)", "result": 6.3819},
      {"measurement": "Robust Z-score", "setting": "SNU761 (LIVER)", "result": "−0.2653"},
      {"measurement": "DNMDP AUC", "setting": "[5]", "result": 6.3444},
      {"measurement": "Robust Z-score", "setting": "[5]", "result": "−0.3047"},
      {"measurement": "DNMDP AUC", "setting": "[6]", "result": 6.3314},
      {"measurement": "Robust Z-score", "setting": "[6]", "result": "−0.3183"},
      {"measurement": "DNMDP AUC", "setting": "SW579 (THYROID)", "result": 4.697},
      {"measurement": "Robust Z-score", "setting": "SW579 (THYROID)", "result": "−2.034"},
      {"measurement": "DNMDP AUC", "setting": "SW837 (LARGE INTESTINE)", "result": 6.5072},
      {"measurement": "Robust Z-score", "setting": "SW837 (LARGE INTESTINE)", "result": "−0.1338"},
      {"measurement": "DNMDP AUC", "setting": "SW1116 (LARGE INTESTINE)", "result": 6.5032},
      {"measurement": "Robust Z-score", "setting": "SW1116 (LARGE INTESTINE)", "result": "−0.138"},
      {"measurement": "DNMDP AUC", "setting": "[7]", "result": 5.1161},
      {"measurement": "Robust Z-score", "setting": "[7]", "result": "−1.594"},
      {"measurement": "DNMDP AUC", "setting": "T98G (CENTRAL NERVOUS SYSTEM)", "result": 6.2412},
      {"measurement": "Robust Z-score", "setting": "T98G (CENTRAL NERVOUS SYSTEM)", "result": "−0.413"},
      {"measurement": "DNMDP AUC", "setting": "[8]", "result": 6.2742},
      {"measurement": "Robust Z-score", "setting": "[8]", "result": "−0.3783"},
      {"measurement": "DNMDP AUC", "setting": "[9]", "result": 6.4214},
      {"measurement": "Robust Z-score", "setting": "[9]", "result": "−0.2238"},
      {"measurement": "DNMDP AUC", "setting": "TOV21G (OVARY)", "result": 6.4695},
      {"measurement": "Robust Z-score", "setting": "TOV21G (OVARY)", "result": "−0.1733"},
      {"measurement": "DNMDP AUC", "setting": "TUHR10TKB (KIDNEY)", "result": 6.3302},
      {"measurement": "Robust Z-score", "setting": "TUHR10TKB (KIDNEY)", "result": "−0.3196"},
      {"measurement": "DNMDP AUC", "setting": "UACC62 (SKIN)", "result": 3.9116},
      {"measurement": "Robust Z-score", "setting": "UACC62 (SKIN)", "result": "−2.858"},
      {"measurement": "DNMDP AUC", "setting": "UACC257 (SKIN)", "result": 6.3508},
      {"measurement": "Robust Z-score", "setting": "UACC257 (SKIN)", "result": "−0.2979"},
      {"measurement": "DNMDP AUC", "setting": "UMUC1 (URINARY TRACT)", "result": 4.9933},
      {"measurement": "Robust Z-score", "setting": "UMUC1 (URINARY TRACT)", "result": "−1.723"},
      {"measurement": "DNMDP AUC", "setting": "VCAP (PROSTATE)", "result": 5.5863},
      {"measurement": "Robust Z-score", "setting": "VCAP (PROSTATE)", "result": "−1.1"},
      {"measurement": "DNMDP AUC", "setting": "VMCUB1 (URINARY TRACT)", "result": 6.4199},
      {"measurement": "Robust Z-score", "setting": "VMCUB1 (URINARY TRACT)", "result": "−0.2254"},
      {"measurement": "DNMDP AUC", "setting": "WM793 (SKIN)", "result": 6.4939},
      {"measurement": "Robust Z-score", "setting": "WM793 (SKIN)", "result": "−0.1477"},
      {"measurement": "DNMDP AUC", "setting": "WM1799 (SKIN)", "result": 6.4744},
      {"measurement": "Robust Z-score", "setting": "WM1799 (SKIN)", "result": "−0.1682"},
      {"measurement": "DNMDP AUC", "setting": "[10]", "result": 6.5012},
      {"measurement": "Robust Z-score", "setting": "[10]", "result": "−0.1401"},
      {"measurement": "DNMDP AUC", "setting": "X647V (URINARY TRACT)", "result": 6.5257},
      {"measurement": "Robust Z-score", "setting": "X647V (URINARY TRACT)", "result": "−0.1144"},
      {"measurement": "DNMDP AUC", "setting": "[11]", "result": 6.4674},
      {"measurement": "Robust Z-score", "setting": "[11]", "result": "−0.1756"}
    ]}
  ]
}
